Each structure is given as a SMILES string. This is one part of the list.

For the test, the system named is HepG2. Briefly: cytotoxicity call (relative viability < 0.9). Particulars: 10 µM.
For `CC(C)NC(=O)N[C@@H]1C=C[C@H](CC(=O)O)O[C@H]1CO`, the cytotoxicity call is “inactive”.
Consider `CO[C@@H](C(=O)N(C)C[C@@H]1OCc2ccccc2-c2c(n(C)c3ccccc23)C(=O)N([C@@H](C)CO)C[C@@H]1C)c1ccccc1`, for which the cytotoxicity call is “inactive”.
For `CN(C)CCCOc1nn(Cc2ccccc2)c2ccccc12.Cl`, the cytotoxicity call was “active”.
With `O=C(c1cccs1)N1c2ccccc2Sc2ccccc21`, the cytotoxicity call was “inactive”.
`C[C@H]1CN([C@@H](C)CO)C(=O)c2cc(NC(=O)C3CC3)ccc2O[C@@H]1CN(C)Cc1ccc2c(c1)OCO2`: the cytotoxicity call was “inactive”.
For the compound `Cc1ccc(S(=O)(=O)Nc2cccc3c2O[C@@H](CN(C)S(C)(=O)=O)[C@@H](C)CN([C@H](C)CO)C3=O)cc1`, the cytotoxicity call was “inactive”.
As for `COc1cc(CN2C(=O)[C@@H]3[C@H]4C(=O)O[C@@H](c5ccccc5)[C@H](C)N(C)C(=O)CC/C=C\CN(Cc5ccccc5)C(=O)[C@H]2[C@]32C=C[C@@H]4O2)ccc1O[SiH](C(C)C)C(C)C`, the cytotoxicity call is “inactive”.
As for `O=C(O)C=CC(=O)O.OCCOCCN1CCN(C2=Nc3ccccc3Sc3ccccc32)CC1`, the cytotoxicity call is “inactive”.
Consider `C[C@@H]1CCCCO[C@@H](CN(C)Cc2ccc(C(=O)O)cc2)[C@@H](C)CN([C@@H](C)CO)C(=O)c2cc(NS(=O)(=O)c3ccccc3)ccc2O1`, for which the cytotoxicity call was “inactive”.
For `NCCOc1ccccc1Cc1ccccc1`, the cytotoxicity call was “inactive”.

The values above are taken from the antibiotic and cytotoxicity screens of Wong et al. (2023).
